{"source": "the supplement of paper PMC8728848", "assay_in_all_cases": "glycan array binding signal (z-score within array); higher = stronger binding", "details_in_all_cases": "glycan notation: IUPAC condensed, linker removed", "key": {"[1]": {"target": "GlcNAc(a1-4)Gal(b1-4)GlcNAc(b1-3)Gal(b1-4)GlcNAc", "in_short": "(§1)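 Negative Z-scores can be read as non-binding. The Z-score is calculated within each array and then averaged across arrays of one protein sequence at different concentrations or buffers and across linkers. Arrays, 3228 in all, were curated from the Consortium for Functional Glycomics database and kept only where the protein sequence was available.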"}, "[2]": {"target": "GlcNAc(a1-4)Gal(b1-4)GlcNAc(b1-3)Gal(b1-4)GlcNAc(b1-3)Gal(b1-4)GlcNAc", "in_short": "as §1"}, "[3]": {"target": "GlcNAc(a1-4)Gal(b1-4)GlcNAc(b1-3)Gal(b1-4)[Fuc(a1-3)]GlcNAc(b1-3)Gal(b1-4)[Fuc(a1-3)]GlcNAc", "in_short": "as §1"}, "[4]": {"target": "GlcNAc(a1-6)Gal(b1-4)GlcNAc", "in_short": "as §1"}, "[5]": {"target": "GlcNAc(b1-2)Gal(b1-3)GalNAc", "in_short": "as §1"}, "[6]": {"target": "GlcNAc(b1-2)Man(a1-3)[GlcNAc(b1-2)Man(a1-6)]Man(b1-4)GlcNAc(b1-4)GlcNAc", "in_short": "as §1"}, "[7]": {"target": "GlcNAc(b1-2)Man(a1-3)[GlcNAc(b1-2)Man(a1-6)]Man(b1-4)GlcNAc(b1-4)[Fuc(a1-6)]GlcNAc", "in_short": "as §1"}, "[8]": {"target": "GlcNAc(b1-2)Man(a1-3)[GlcNAc(b1-4)][GlcNAc(b1-2)Man(a1-6)]Man(b1-4)GlcNAc(b1-4)GlcNAc", "in_short": "as §1"}, "[9]": {"target": "GlcNAc(b1-2)[GlcNAc(b1-4)]Man(a1-3)[GlcNAc(b1-2)Man(a1-6)]Man(b1-4)GlcNAc(b1-4)GlcNAc", "in_short": "as §1"}, "[10]": {"target": "GlcNAc(b1-2)[GlcNAc(b1-4)]Man(a1-3)[GlcNAc(b1-4)][GlcNAc(b1-2)Man(a1-6)]Man(b1-4)GlcNAc(b1-4)GlcNAc", "in_short": "as §1"}, "[11]": {"target": "GlcNAc(b1-2)[GlcNAc(b1-4)]Man(a1-3)[GlcNAc(b1-4)][GlcNAc(b1-2)[GlcNAc(b1-6)]Man(a1-6)]Man(b1-4)GlcNAc(b1-4)GlcNAc", "in_short": "as §1"}, "[12]": {"target": "GlcNAc(b1-2)[GlcNAc(b1-6)]Man(a1-6)[GlcNAc(b1-2)Man(a1-3)]Man(b1-4)GlcNAc(b1-4)GlcNAc", "in_short": "as §1"}, "[13]": {"target": "GlcNAc(b1-2)[GlcNAc(b1-6)]Man(a1-6)[GlcNAc(b1-2)Man(a1-3)][GlcNAc(b1-4)]Man(b1-4)GlcNAc(b1-4)GlcNAc", "in_short": "as §1"}, "GlcNAc(b1-3)Gal": {"target": "GlcNAc(b1-3)Gal", "in_short": "as §1"}, "[14]": {"target": "GlcNAc(b1-3)Gal(b1-3)GalNAc", "in_short": "as §1"}, "GlcNAc(b1-3)Gal(b1-4)Glc": {"target": "GlcNAc(b1-3)Gal(b1-4)Glc", "in_short": "as §1"}, "[15]": {"target": "GlcNAc(b1-3)Gal(b1-4)GlcNAc", "in_short": "as §1"}, "[16]": {"target": "GlcNAc(b1-3)Gal(b1-4)GlcNAc(b1-3)Gal(b1-4)GlcNAc", "in_short": "as §1"}, "GlcNAc(b1-3)GalNAc": {"target": "GlcNAc(b1-3)GalNAc", "in_short": "as §1"}, "GlcNAc(b1-3)Man": {"target": "GlcNAc(b1-3)Man", "in_short": "as §1"}, "[17]": {"target": "GlcNAc(b1-3)[GlcNAc(b1-4)][GlcNAc(b1-6)]GlcNAc", "in_short": "as §1"}, "[18]": {"target": "GlcNAc(b1-3)[GlcNAc(b1-6)]Gal(b1-4)GlcNAc", "in_short": "as §1"}, "[19]": {"target": "GlcNAc(b1-3)[GlcNAc(b1-6)]GalNAc", "in_short": "as §1"}, "[20]": {"target": "GlcNAc(b1-4)Gal(b1-4)GlcNAc", "in_short": "as §1"}, "GlcNAc(b1-4)GlcNAc": {"target": "GlcNAc(b1-4)GlcNAc", "in_short": "as §1"}, "[21]": {"target": "GlcNAc(b1-4)GlcNAc(b1-4)GlcNAc", "in_short": "as §1"}, "[22]": {"target": "GlcNAc(b1-4)GlcNAc(b1-4)GlcNAc(b1-4)GlcNAc(b1-4)GlcNAc", "in_short": "as §1"}, "[23]": {"target": "GlcNAc(b1-4)GlcNAc(b1-4)GlcNAc(b1-4)GlcNAc(b1-4)GlcNAc(b1-4)GlcNAc", "in_short": "as §1"}, "[24]": {"target": "GlcNAc(b1-4)[GlcNAc(b1-6)]GalNAc", "in_short": "as §1"}, "[25]": {"target": "GlcNAc(b1-6)Gal(b1-4)GlcNAc", "in_short": "as §1"}, "GlcNAc(b1-6)GalNAc": {"target": "GlcNAc(b1-6)GalNAc", "in_short": "as §1"}, "GlcNAc3Prop(b1-4)GlcNAc": {"target": "GlcNAc3Prop(b1-4)GlcNAc", "in_short": "as §1"}, "[26]": {"target": "GlcNAc6S(b1-3)Gal(b1-4)GlcNAc", "in_short": "as §1"}, "Kdn(a2-3)Gal(b1-3)GalNAc": {"target": "Kdn(a2-3)Gal(b1-3)GalNAc", "in_short": "as §1"}, "Kdn(a2-3)Gal(b1-3)GlcNAc": {"target": "Kdn(a2-3)Gal(b1-3)GlcNAc", "in_short": "as §1"}, "Kdn(a2-3)Gal(b1-4)Glc": {"target": "Kdn(a2-3)Gal(b1-4)Glc", "in_short": "as §1"}, "Kdn(a2-3)Gal(b1-4)GlcNAc": {"target": "Kdn(a2-3)Gal(b1-4)GlcNAc", "in_short": "as §1"}, "[27]": {"target": "Kdn(a2-3)Gal(b1-4)[Fuc(a1-3)]GlcNAc", "in_short": "as §1"}, "Kdn(a2-6)Gal(b1-4)GlcNAc": {"target": "Kdn(a2-6)Gal(b1-4)GlcNAc", "in_short": "as §1"}, "[28]": {"target": "Man(a1-2)Man(a1-2)Man(a1-3)Man", "in_short": "as §1"}, "[29]": {"target": "Man(a1-2)Man(a1-2)Man(a1-6)[Man(a1-3)]Man", "in_short": "as §1"}, "Man(a1-2)Man(a1-3)Man": {"target": "Man(a1-2)Man(a1-3)Man", "in_short": "as §1"}, "[30]": {"target": "Man(a1-2)Man(a1-3)[Man(a1-2)Man(a1-6)]Man", "in_short": "as §1"}, "[31]": {"target": "Man(a1-2)Man(a1-3)[Man(a1-2)Man(a1-6)]Man(a1-6)[Man(a1-2)Man(a1-2)Man(a1-3)]Man", "in_short": "as §1"}, "[32]": {"target": "Man(a1-2)Man(a1-3)[Man(a1-2)Man(a1-6)]Man(a1-6)[Man(a1-2)Man(a1-2)Man(a1-3)]Man(b1-4)GlcNAc(b1-4)GlcNAc", "in_short": "as §1"}}, "note": "This is one part of the list."}
{"binder": "3FTT (Staphylococcus aureus), Q5HCZ5 (protein) MTEKEKMLAEKWYDANFDQYLINERARAKDICFELNHTRPSATNKRKELIDQLFQTTTDNVSISIPFDTDYGWNVKLGKNVYVNTNCYFMDGGQITIGDNVFIGPNCGFYTATHPLNFHHRNEGFEKAGPIHIGSNTWFGGHVAVLPGVTIGEGSVIGAGSVVTKDIPPHSLAVGNPCKVVRKIDNDLPSETLNDETIK", "values": [{"measurement": "glycan array binding signal (z-score)", "setting": "[1]", "result": 0.607}, {"measurement": "glycan array binding signal (z-score)", "setting": "[2]", "result": -0.033}, {"measurement": "glycan array binding signal (z-score)", "setting": "[3]", "result": -0.099}, {"measurement": "glycan array binding signal (z-score)", "setting": "[4]", "result": 0.025}, {"measurement": "glycan array binding signal (z-score)", "setting": "[5]", "result": 0.3}, {"measurement": "glycan array binding signal (z-score)", "setting": "[6]", "result": -0.115}, {"measurement": "glycan array binding signal (z-score)", "setting": "[7]", "result": 0.04}, {"measurement": "glycan array binding signal (z-score)", "setting": "[8]", "result": -0.062}, {"measurement": "glycan array binding signal (z-score)", "setting": "[9]", "result": -0.055}, {"measurement": "glycan array binding signal (z-score)", "setting": "[10]", "result": 0.102}, {"measurement": "glycan array binding signal (z-score)", "setting": "[11]", "result": -0.003}, {"measurement": "glycan array binding signal (z-score)", "setting": "[12]", "result": -0.134}, {"measurement": "glycan array binding signal (z-score)", "setting": "[13]", "result": 0.124}, {"measurement": "glycan array binding signal (z-score)", "setting": "GlcNAc(b1-3)Gal", "result": 0.059}, {"measurement": "glycan array binding signal (z-score)", "setting": "[14]", "result": -0.178}, {"measurement": "glycan array binding signal (z-score)", "setting": "GlcNAc(b1-3)Gal(b1-4)Glc", "result": -0.062}, {"measurement": "glycan array binding signal (z-score)", "setting": "[15]", "result": -0.025}, {"measurement": "glycan array binding signal (z-score)", "setting": "[16]", "result": 0.092}, {"measurement": "glycan array binding signal (z-score)", "setting": "GlcNAc(b1-3)GalNAc", "result": -0.241}, {"measurement": "glycan array binding signal (z-score)", "setting": "GlcNAc(b1-3)Man", "result": -0.063}, {"measurement": "glycan array binding signal (z-score)", "setting": "[17]", "result": -0.01}, {"measurement": "glycan array binding signal (z-score)", "setting": "[18]", "result": -0.075}, {"measurement": "glycan array binding signal (z-score)", "setting": "[19]", "result": -0.288}, {"measurement": "glycan array binding signal (z-score)", "setting": "[20]", "result": -0.16}, {"measurement": "glycan array binding signal (z-score)", "setting": "GlcNAc(b1-4)GlcNAc", "result": -0.128}, {"measurement": "glycan array binding signal (z-score)", "setting": "[21]", "result": -0.157}, {"measurement": "glycan array binding signal (z-score)", "setting": "[22]", "result": -0.212}, {"measurement": "glycan array binding signal (z-score)", "setting": "[23]", "result": -0.225}, {"measurement": "glycan array binding signal (z-score)", "setting": "[24]", "result": -0.378}, {"measurement": "glycan array binding signal (z-score)", "setting": "[25]", "result": -0.001}, {"measurement": "glycan array binding signal (z-score)", "setting": "GlcNAc(b1-6)GalNAc", "result": -0.178}, {"measurement": "glycan array binding signal (z-score)", "setting": "GlcNAc3Prop(b1-4)GlcNAc", "result": -0.072}, {"measurement": "glycan array binding signal (z-score)", "setting": "[26]", "result": -0.016}, {"measurement": "glycan array binding signal (z-score)", "setting": "Kdn(a2-3)Gal(b1-3)GalNAc", "result": -0.059}, {"measurement": "glycan array binding signal (z-score)", "setting": "Kdn(a2-3)Gal(b1-3)GlcNAc", "result": 0.165}, {"measurement": "glycan array binding signal (z-score)", "setting": "Kdn(a2-3)Gal(b1-4)Glc", "result": -0.005}, {"measurement": "glycan array binding signal (z-score)", "setting": "Kdn(a2-3)Gal(b1-4)GlcNAc", "result": -0.201}, {"measurement": "glycan array binding signal (z-score)", "setting": "[27]", "result": 0.16}, {"measurement": "glycan array binding signal (z-score)", "setting": "Kdn(a2-6)Gal(b1-4)GlcNAc", "result": -0.292}, {"measurement": "glycan array binding signal (z-score)", "setting": "[28]", "result": -0.082}, {"measurement": "glycan array binding signal (z-score)", "setting": "[29]", "result": -0.073}, {"measurement": "glycan array binding signal (z-score)", "setting": "Man(a1-2)Man(a1-3)Man", "result": 0.167}, {"measurement": "glycan array binding signal (z-score)", "setting": "[30]", "result": -0.204}, {"measurement": "glycan array binding signal (z-score)", "setting": "[31]", "result": -0.089}, {"measurement": "glycan array binding signal (z-score)", "setting": "[32]", "result": -0.02}]}
